In the supplement of paper PMC13380429:

Columns and labels:
Conditions in all cases: 72 h
[1] = system: Vero E6; test: cell viability relative to DMSO; higher = less toxic
[2] = system: U2OS; test: as above
[3] = system: Calu-3; test: as above
[4] = system: Caco-2; test: as above
[5] = system: HepG2; test: as above
[6] = system: Vero E6; test: relative viability EC50 (midpoint between 100% and the lowest measured viability); higher = less toxic
[7] = system: U2OS; test: as above
[8] = system: Calu-3; test: as above
[9] = system: Caco-2; test: as above
[10] = system: HepG2; test: as above
[11] = system: Vero E6; test: drug sensitivity score (DSS) for viability; higher = more toxic; extreme values may be limits of the assay
[12] = system: U2OS; test: as above
[13] = system: Calu-3; test: as above
[14] = system: Caco-2; test: as above
[15] = system: HepG2; test: as above

Cc1c(C(=O)NN2CCCCC2)nn(-c2ccc(Cl)cc2Cl)c1-c1ccc(I)cc1 [AM-251]
cell viability [%]
Conditions | [1] | [2] | [3] | [4] | [5]
1 nM | 110 | 93.7 | 94.4 | 96.8 | 99.5
10 nM | 102 | 98.8 | 93.5 | 110 | 104
100 nM | 104 | 93.2 | 93.9 | 87.8 | 114
1000 nM | 98.6 | 99.4 | 96.1 | 99.3 | 93.4
10000 nM | 93.6 | 91.9 | 99.9 | 77.6 | 91.2

Conditions | drug sensitivity score | relative viability EC50 [µM]
[6] | – | > 10
[7] | – | > 10
[8] | – | > 10
[9] | – | > 10
[10] | – | > 10
[11] | 0 | –
[12] | 0 | –
[13] | 0 | –
[14] | 0.8 | –
[15] | 0 | –
